Laboratory results: ChEMBL document CHEMBL4888484, “Replenishing the malaria drug discovery pipeline: Screening and hit evaluation of the MMV Hit Generation Library 1 (HGL1) against asexual blood stage Plasmodium falciparum ,using a nano luciferase reporter read-out” (2022)
Values joined by “and” are separate entries in the source; they are usually repeats but may differ in a detail not shown here. Equal entries are not always repeated. Out of some 4,800 compounds screened, about 420 (8.8%) showed an effect of 50% or more. The list shows a part of the results.

Test system: Plasmodium falciparum
Assay: Confirmatory screen in NF54 nanoGlo assay, in single point, at 2uM, 72h
Assay type: functional, Erythrocyte
Details: timepoint 72 hour

| SMILES | % Inhibition [%] | % Inhibition (2 µM) |
| --- | --- | --- |
| Cc1ccc(CNC(=O)c2nc(-c3ccncc3)cs2)o1 | 7 | – |
| O=C(Cn1ccnc1)N1CCCCCC1CC(O)c1ccccc1 (stereo not given) | 0 | – |
| Cc1nnc(C(C)NC(Cc2ccccc2)c2sccc2C)s1 (stereo not given) | -13 | – |
| CCCc1noc([C@H]2CC(=O)N(c3ccccc3C)C2)n1 | -1 | – |
| Nc1cccnc1N1CCc2ccccc21 | -5 | – |
| CCc1ccc(NC(=O)[C@H](C)N2CCC(NS(=O)(=O)c3cccs3)CC2)cc1 | 70 | – |
| Cc1cnccc1NCCNCc1cccc(O)c1Cl | 88 | – |
| COc1c(Cl)cc(Cl)cc1C#N | -16 | – |
| CN(Cc1cccnc1)c1ccc(S(=O)(=O)C(F)F)cc1 | -5 | – |
| CC[C@@H](C(=O)NCc1ccc(OC(C)C)cc1)n1ccc2cc(S(=O)(=O)N3CCCCC3)ccc21 | 6 | – |
| C[C@@]12CO[C@@H](COc3ccccc3)O[C@@H]1CC[C@]1(C)C2CC[C@@H](O)[C@H]1CC(=O)N1CCC[C@H]1CO (stereo not given in full) | -4 | – |
| CCO[C@@]1(c2ccccc2)NC(=O)c2cc3c(cc21)OCCO3 | -11 | – |
| Cc1cc(S(=O)(=O)NC[C@H]2CCCCN2)sc1C | -9 | – |
| O=c1[nH]nc2c(N3CC[C@H](NCc4ccc(F)cc4)C3)nccn12 | -7 | – |
| Cc1n[nH]cc1CNC1CC2CCC1C2 (stereo not given) | -8 | – |
| O=C(/N=C(/c1ccccc1)N1CCCCC1)C(F)(F)C(F)(F)C(F)(F)C(F)(F)C(F)(F)C(F)(F)F | – | 0% and -8% |
| Oc1nccc(C(F)(F)C(F)(F)F)n1 | -6 | – |
| COCCNc1nc(-c2ccccc2OC)c2c(N)n(-c3ccc(F)cc3)nc2n1 | -6 | – |
| COc1ccccc1C1c2[nH]c3ccccc3c2C[C@H]2C(=O)N(CC(O)c3ccccc3)CC(=O)N12 (stereo not given in full) | 33 | – |
| Cc1nn(Cc2cccc(C(F)(F)F)c2)c(=O)n1-c1ccc(OCc2ccccc2)cc1 | -13 | – |
| CC1CC(=O)N(CC(=O)N2CCCCCC2)C(=O)C1 | -7 | – |
| Cc1ccc(N2C(=O)C[C@]3(CC3(c3ccccc3)c3ccccc3)C2=O)cc1 | 66 | – |

| SMILES | % Inhibition [%] | % Inhibition (2 µM) |
| --- | --- | --- |
| Cc1nccc(O[C@H]2CCCN(C(=O)CN3CCN(c4ccccc4)C3=O)C2)n1 | -4 | – |
| Cc1ccc(NC(=O)Cn2c(C)nc3c(-c4ccccn4)nsc3c2=O)c(C)c1 | 0 | – |
| Cc1csc(S(=O)(=O)N2CC[C@H](n3cccn3)C2)c1 | -4 | – |
| CCn1nc(C(=O)N(C2CCCCC2)C2CC2)c2ccccc2c1=O | -10 | – |
| COc1ccc(Br)c(C#N)c1C | 3 | – |
| CC(CC(=O)O)CC(=O)N1CC(C)CC(C)C1 (stereo not given) | 6 | – |
| CCC1C(C(=O)NCCN(C)CCOC)CCN1C(=O)OC(C)(C)C (stereo not given) | -7 | – |
| COc1cccc(CNC(=O)Cn2c(=O)n(Cc3cccc(OC)c3)c(=O)c3sccc32)c1 | 2 | – |
| CCOc1cc(CNC2CCN(C(C)=O)CC2)ccc1OCc1c(F)cccc1Cl | -7 | – |
| COc1ccc(C2=Nc3ccc(S(=O)(=O)N4CCOCC4)cc3S(=O)(=O)N2)cc1 | -10 | – |
| CCS(=O)(=O)Nc1ccc(Br)cc1Cl | -5 | – |
| O=C(Cn1c(=O)n(Cc2ccc3c(c2)OCO3)c(=O)c2sccc21)Nc1ccc(Cl)cc1F | 13 | – |
| Cc1oc(-c2ccn[nH]2)cc1S(=O)(=O)Nc1cccc(Cl)c1 | 52 | – |
| Cc1cc(C(=O)N2CCC[C@H]2c2nc(C3CCOCC3)no2)n(C)n1 | -2 | – |
| Cc1nn(Cc2cccc(F)c2)c(C)c1NC(=O)c1cccc(COc2ccc(Br)cc2)c1 | 8 | – |
| CCc1nc(C(=O)[C@H](C#N)C(=O)Nc2cccc(C)c2)co1 | -10 | – |
| CCCC(C)(C)N(Cc1cccs1)Cc1nnc2n1CCOC2 | 1 | – |
| CCc1c(NC(=O)[C@@H](C)C2CC2)nnn1CCc1ccc(OC)cc1 | -1 | – |
| Cc1cnc(NC(=O)C(=O)N2CCC[C@H](n3cccn3)C2)s1 | -4 | – |
| Cc1cc(=O)c(CO)nn1CCCc1ccccc1 | -3 | – |
| Cc1nc(C)c(CN2C(=O)C3CCCCC3C2=O)s1 (stereo not given) | -2 | – |
| CCc1cc(C(=O)N2CCC[C@H](C)C2)c2c(C3CC3)nn(-c3ccccc3)c2n1 | -8 | – |

| SMILES | % Inhibition [%] | % Inhibition (2 µM) |
| --- | --- | --- |
| CC1CCCN(c2nc(O)c3c(n2)NC(=O)CC3c2cccc(C(F)(F)F)c2)C1 (stereo not given) | 1 | – |
| O=C(OCC1OCC(n2cc(C(F)(F)F)c(=O)[nH]c2=O)O1)c1ccccc1 (stereo not given) | -3 | – |
| O=C(CCC(=O)N1CCCC1)NCc1ccc2c(c1)OCO2 | -16 | – |
| COCc1ncc(C)n1CCNC(=O)c1cc(-c2cc(C)ccc2C)n[nH]1 | 6 | – |
| Cc1cc(N2CCn3c(nc4ccccc43)C2)ccc1NC(=O)C1CCCCC1 | 10 | – |
| Nc1c(Br)cc2oc(-c3ccc4ccccc4c3)nc2c1Br | 3 | – |
| O=c1[nH]c2nc(N3CCCCC3)ncc2c(=O)n1Cc1ccco1 | -15 | – |
| COCc1cc2nn(CC(=O)Nc3ccc4c(c3)OCO4)c(=O)n2c(-c2ccccc2)n1 | 0 | – |
| O=S(=O)(N[C@H]1CCc2nnc(-c3ccc(F)cc3)n2C1)N1CCCCC1 | 4 | – |
| Cc1ccc(OCc2cccc(C(=O)N3CCC[C@@H]3CN3CCCCC3)c2)cn1 | 8 | – |
| COc1ccc(OC)c(CN2C(=O)c3cc4c(OC)ccc(OC)c4n3C[C@]2(C(=O)NC2CCCCCC2)c2ccccc2)c1 | 18 | – |
| Cc1cccc(Cc2c(C)nn(-c3nc(C)cc(C)n3)c2O)c1 | -18 | – |
| CCn1nc(C)c2c(C(=O)Nc3cc(C)ccc3C)cc(-c3ccc(C)cc3)nc21 | 7 | – |
| O=S(=O)(c1ccc(Cl)cc1)N1CCN(C2CCCC2)CC1 | 2 | – |
| COc1ccc(C(OC)C(C)NC(=O)Cc2c(C)[nH]c3ccnn3c2=O)cc1 (stereo not given) | -2 | – |
| O=C(NCc1cc(F)cc(F)c1)c1ccc2ccccc2n1 | 1 | – |
| COc1ccc(N2CCN(c3nccn4nc(-c5ccc(OC)c(OC)c5)cc34)CC2)cc1 | -10 | – |
| Cn1ccc(NC(=O)c2n[nH]c3ccccc23)n1 | -12 | – |
| Cc1ccc(CNc2ncnc3c2cnn3-c2ccccn2)cc1 | 0 | – |
| O=C(NCc1cccs1)c1cn[nH]c1-c1ccccc1 | -6 | – |
| Cc1cccc2c(-c3cc(N)nc(N)n3)c[nH]c12 | 85 | – |
